Paper PMC4336329 (PLoS ONE, 2015)
The campaign covered roughly 310,000 compounds. About 14,000 (4.5%) showed an effect of 50% or more. The effect is printed as a negative number. This is one part of the list.

Target: human ether-à-go-go-related gene (hERG) potassium channel (human, UniProt Q12809)
Assay: primary screen, population patch clamp on CHO cells stably expressing hERG
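Note: peak tail current of the secondary pulse compared with the same well before compound.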

Sequence of human ether-à-go-go-related gene (hERG) potassium channel (Q12809 whole entry, looked up): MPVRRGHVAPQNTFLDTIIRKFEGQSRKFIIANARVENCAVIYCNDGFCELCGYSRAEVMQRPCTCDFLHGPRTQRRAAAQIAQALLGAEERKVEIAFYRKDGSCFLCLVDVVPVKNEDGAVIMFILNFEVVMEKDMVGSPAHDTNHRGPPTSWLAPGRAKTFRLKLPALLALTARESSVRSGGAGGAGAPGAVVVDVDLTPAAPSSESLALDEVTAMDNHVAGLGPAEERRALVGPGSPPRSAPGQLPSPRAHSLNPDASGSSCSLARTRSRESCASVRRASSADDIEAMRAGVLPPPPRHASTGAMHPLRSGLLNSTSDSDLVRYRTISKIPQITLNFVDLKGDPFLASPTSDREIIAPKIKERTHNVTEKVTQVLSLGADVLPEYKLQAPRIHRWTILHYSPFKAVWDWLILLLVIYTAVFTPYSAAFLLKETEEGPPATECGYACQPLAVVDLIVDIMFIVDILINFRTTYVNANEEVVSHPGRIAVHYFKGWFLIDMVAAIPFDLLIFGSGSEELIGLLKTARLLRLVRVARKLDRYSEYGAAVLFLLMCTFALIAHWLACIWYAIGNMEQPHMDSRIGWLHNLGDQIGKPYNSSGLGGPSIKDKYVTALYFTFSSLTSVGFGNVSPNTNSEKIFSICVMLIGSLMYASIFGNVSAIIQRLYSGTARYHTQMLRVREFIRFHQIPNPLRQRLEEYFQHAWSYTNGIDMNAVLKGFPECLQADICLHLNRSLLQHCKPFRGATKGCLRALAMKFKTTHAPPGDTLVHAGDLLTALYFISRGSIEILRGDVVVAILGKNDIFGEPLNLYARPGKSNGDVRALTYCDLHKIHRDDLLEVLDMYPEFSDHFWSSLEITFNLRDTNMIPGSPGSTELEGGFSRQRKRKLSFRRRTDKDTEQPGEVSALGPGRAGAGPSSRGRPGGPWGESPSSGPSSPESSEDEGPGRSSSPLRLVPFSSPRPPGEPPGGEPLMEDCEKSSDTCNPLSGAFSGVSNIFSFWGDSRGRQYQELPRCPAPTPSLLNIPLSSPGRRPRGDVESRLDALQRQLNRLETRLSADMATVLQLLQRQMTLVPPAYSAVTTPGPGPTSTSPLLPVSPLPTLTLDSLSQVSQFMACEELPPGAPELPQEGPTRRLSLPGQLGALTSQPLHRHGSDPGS

Row | Compound | hERG current change (%, negative = inhibition) at 10uM
1 | C/C(=N/NC(=O)CSc1nc2ccccc2n1C)c1ccncc1 | 8.51%
2 | C=CCn1c(SCC(=O)NC(=O)Cc2ccccc2)nc2ccccc2c1=O | 6.59%
3 | CCOC(=O)C(NC(=O)c1ccc(OC)cc1)(N1CCOCC1)C(F)(F)F (stereo not drawn) | 12.8%
4 | NC(=O)N/N=C(/CCCCCC/C(=N\NC(N)=O)c1ccccc1)c1ccccc1 | -10.5%
5 | CCOc1ccc(NC(=O)CNC(=O)c2cccs2)cc1 | 12.1%
6 | CCCCC1CCC(C(=O)Nc2ccccc2N2CCOCC2)CC1 (stereo not drawn) | -34.3%
7 | CCCCOc1ccc2c(c1)/C(=C(\C(Cl)=C(Cl)Cl)[N+](=O)[O-])N2 | 27%
8 | COc1cccc(NC(=O)CC2(CC(=O)O)CCCC2)c1 | -39.8%
9 | COc1ccc(C(=O)c2c(C(F)(F)F)oc3c2C(=O)c2ccccc2C3=O)cc1OC | -2.82%
10 | CCN1CCN(CCCNC(=O)c2ccc(NC(=O)C3=CSCCO3)cc2)CC1 | 19.9%
11 | COC(=O)c1cccc(NC(=O)CSc2nc(O)c(-c3ccccc3)c(=O)[nH]2)c1 | 11.2%
12 | Cc1noc(C)c1CSCC(=O)Nc1cc(S(=O)(=O)N2CCCCC2)ccc1OC(C)C | -18.5%
13 | CCOc1ccc(-c2csc(C3COc4ccccc4O3)n2)cc1 (stereo not drawn) | -3.91%
14 | COc1cccc(-n2c(=O)[nH]cc(C(=O)Nc3ccc4c(c3)OCCO4)c2=O)c1 | 4.33%
15 | COC(=O)c1ccc(C(=O)NN)cc1 | 19.2%
16 | O=C1NC2(CCCCC2)N(C(=O)c2ccccc2)C2=C1CCCC2 | 38%
17 | Cc1ccc(Oc2ncccc2C(=O)NC2CCSC2=O)cc1 (stereo not drawn) | -6.68%
18 | CCOC(=O)[C@H]1[C@H]2COc3ccc(Cl)cc3[C@@H]2N2C(=O)c3cc(OC)ccc3NC(=O)[C@@]12C | -12.6%
19 | N#Cc1cnn2ccc(-c3cc(N4CCOCC4)ccc3[N+](=O)[O-])nc12 | -1.59%
20 | O=C(Cc1coc2cc3c(cc12)CCC3)OCC(=O)N1CCCC1=O | -9.84%
21 | CCOC(=O)c1cnc(SCC(=O)N2CCN(C(=O)c3ccco3)CC2)nc1N | -29.3%
22 | Cc1noc(C)c1C(=O)Nc1nccs1 | 18.6%
23 | O=C(CSc1ncnc2c1oc1ccccc12)Nc1cccc(F)c1 | 6.32%

Row | Compound | hERG current change (%, negative = inhibition) at 10uM
24 | Cc1nn(C)c(C)c1NC(=O)c1cc2nc(-c3ccco3)cc(C(F)(F)F)n2n1 | 15.4%
25 | CCc1nnc(NS(=O)(=O)c2ccc(N3C(=O)c4ccc(C(=O)O)cc4C3=O)cc2)s1 | 5.19%
26 | CCN1C(=O)N[C@@H](CCc2ccccc2)C(C(=O)OC)=C1C | -5.41%
27 | CCNc1nc2c(c(=O)n(C)c(=O)n2C)n1CCCc1ccccc1 | -6.54%
28 | N#CCCn1cc(/C=N/O)c(-c2cccc([N+](=O)[O-])c2)n1 | -11.4%
29 | COc1ccc(C(C(=O)NC2CCCCC2)N(C(=O)c2ccco2)c2ccccc2C(C)=O)cc1OC (stereo not drawn) | 9.15%
30 | CC(C)N(C1=N/C(=C\c2ccco2)C(=O)N1c1ccccc1)C(C)C | 16.2%
31 | COc1ccc2[nH]c(=O)c(CN(CCO)S(=O)(=O)c3ccc4c(c3)OCCO4)cc2c1 | -3.37%
32 | COC(=O)C1=CNC=C(C(=O)OC)C1c1ccc(C(=O)OC)cc1 | -11.8%
33 | O=C(COC(=O)Cc1ccsc1)NCC1CCCCC1 | -6.72%
34 | CCNC(=S)N1CCC(C(N)=O)CC1 | 15.6%
35 | O=C(N/N=C1\CCCc2ccccc21)c1ccccc1Cl | 0.00628%
36 | CCOCCCNC(=O)c1cccs1 | 19.4%
37 | [O-][n+]1c2c(nn1-c1ccccc1Cl)-c1nonc1CC2 | -0.263%
38 | C/C(CC(=O)Nc1ccc(N(C)C)cc1)=N\NC(=O)c1ccc([N+](=O)[O-])cc1Cl | -14.5%
39 | CC(/C=N/NC(=O)c1cc(C(C)(C)C)[nH]n1)=C\c1ccccc1 | -7.26%
40 | O=c1[nH][nH]c(-c2ccccc2O)c1C(C[N+](=O)[O-])c1cccc(Cl)c1 (stereo not drawn) | 15.1%
41 | CC(c1cccs1)N(C)Cc1nc(CCc2ccccc2)no1 (stereo not drawn) | -10.3%
42 | OCC1(CCOc2ccccc2)CCN(Cc2ccccc2OC(F)F)CC1 | -72.5%
43 | O=C(CSC(=S)N1CCCC1)Nc1ccc(Br)cc1Cl | 17.5%
44 | CC(C)Sc1nc2c(cnn2-c2ccc(Cl)cc2)c(=O)[nH]1 | 26.2%
45 | O=C(CC1C(=O)NCCN1C/C=C/c1ccccc1)NCCc1cccnc1 (stereo not drawn) | 11.6%
